Experimental data reported in PubChem BioAssay AID504832 (National Center for Advancing Translational Sciences (NCATS), 2011).
Among all 310,000 compounds or so, about 18,000 (5.8%) were called active. The inconclusive results got no clear call from the source; some entries with a clear call stand among them for comparison. The call rests on the fitted dose curve; in most records, active means well fitted inhibition curve with a large enough effect; inconclusive means small, poorly fitted or top-dose-only effect, or another doubt; inactive means no such curve, though single readings can be large or run the other way. No potency is given beside an inconclusive call; the fits are too rough.

Assay: Primary qHTS for delayed death inhibitors of the malarial parasite plastid, 48 hour incubation
Details: P. falciparum luciferase growth in erythrocytes; series mostly up to 28.7 µM; activity change, negative = inhibition: at the top concentration
Summary of the method: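 First compound was added to culture medium, then infected red cells at 0.1% parasitemia and 2% hematocrit (final). After incubation at 37 C under 5% CO2, luciferase detection reagent was dispensed and light output recorded.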
On the % scale 0 is the no-effect control and ±100 the full control effect; potency means the concentration at half of the fitted maximal effect; tags describe the fitted curve by direction and shape.

Row | SMILES | activity change, negative = inhibition | Potency
1 | CSc1nc(O)c(C(c2ccccc2)c2c(O)nc(SC)[nH]c2=O)c(=O)[nH]1 | inactive: 0% | 
2 | CC(C)CNS(=O)(=O)c1ccc(CCC(=O)N2CCN(c3ccc(F)cc3)CC2)cc1 |  | inconclusive [inhibitor, single point]
3 | O=C(c1ccc(C(F)(F)F)cc1)C1CCCN(Cc2ccc(CO)o2)C1 (configuration not stated) |  | inconclusive [inhibitor, full curve, poor fit]
4 | CCOc1ccc(CNCCN2CCCC2)cc1 |  | inconclusive [inhibitor, partial curve, poor fit]
5 | Cc1cc(C)cc(N=c2c([N+](=O)[O-])nn(-c3ccc(Cl)cc3)n2O)c1 | inactive: -7.44% | 
6 | O=C(NCc1ccccc1)C1=C[C@@H](c2ccc(Br)cc2)C[C@@H](OCCCCO)O1 |  | inconclusive [inhibitor, partial curve, poor fit]
7 | CC(C)Cn1nc(NC(=O)c2cccs2)c2cc3ccccc3nc21 |  | inconclusive [inhibitor, single point]
8 | Cc1ccc(C)c(NC2CCCCC2NS(=O)(=O)c2ccccc2)c1 (configuration not stated) |  | inconclusive [inhibitor, partial curve, poor fit]
9 | CCCC[C@]12Cc3cc(OC)c(OC)cc3C(O1)C1=C(CC3(CCCCC3)OC1=O)O2 |  | inconclusive [inhibitor, single point]
10 | COc1ccccc1NC(=O)Cc1noc(CSc2nnc(C(F)(F)F)n2C)n1 |  | inconclusive [inhibitor, single point]
11 | Cc1ccc(C)c(OCC(=O)Nc2cc(C(=O)O)cc(C(=O)O)c2)c1 |  | inconclusive [inhibitor, partial curve]
12 | Cc1cccc(OCC(=O)Nc2ccc(CN3CCOCC3)cc2)c1C | inactive: -1.33% | 
13 | CCCCn1c(N)c(N(CCOC)C(=O)c2cccc(S(=O)(=O)N(CC)c3ccccc3)c2)c(=O)[nH]c1=O |  | inconclusive [inhibitor, partial curve, poor fit]
14 | CC1Cc2cc(/C(O)=C3\C(=O)C(=O)N(CCN4CCOCC4)C3c3ccccc3F)ccc2O1 (configuration not stated) |  | inconclusive [inhibitor, full curve, poor fit]
15 | CC(CCc1ccccc1)NCC(O)c1cccc([N+](=O)[O-])c1 (configuration not stated) |  | active: 0.233 µM
16 | N#C/C(=C\c1ccc(OCc2ccc(C(=O)O)cc2)cc1)C(=O)NCc1ccccc1 | inactive: 3.06% | 
17 | CCCN1CCN(C(=O)c2ccc3nc(CC)c(CC)nc3c2)CC1 | inactive: 35.5% | 
18 | O=C(CNC(=O)c1ccncc1)N/N=C/c1cccc([N+](=O)[O-])c1 | inactive: 9.51% | 
19 | CN(C)/C=C(/C(=O)c1ccc(Cl)cc1)S(=O)(=O)c1ccccc1 |  | inconclusive [inhibitor, full curve, poor fit]
20 | Oc1ccc(Cc2ccc(Cl)cc2)c(O)c1 |  | inconclusive [inhibitor, single point]
21 | COc1ccc(N2CCN(C(=O)C3CCC(Cn4c(=S)[nH]c5ccccc5c4=O)CC3)CC2)cc1 (configuration not stated) |  | inconclusive [inhibitor, partial curve, poor fit]

Row | SMILES | activity change, negative = inhibition | Potency
22 | Cc1cc(NC(=O)C(C)SCC(=O)Nc2ccc(Br)cc2Br)no1 (configuration not stated) |  | inconclusive [inhibitor, partial curve, poor fit]
23 | CCC(=O)N1c2ccc(S(=O)(=O)CCC(=O)NCCC3=CCCCC3)cc2CC1C (configuration not stated) |  | inconclusive [inhibitor, single point]
24 | CCc1ccc(CCC(=O)Nc2ccc(C(C)=O)cc2)o1 |  | inconclusive [inhibitor, single point]
25 | O=c1[nH]c2ccccc2c2nc(-c3cccc(S(=O)(=O)N4CCCC4)c3)nn12 | inactive: -47.4% | 
26 | O=C1C(=O)N(Cc2ccncc2)C(c2ccccc2F)/C1=C(\O)c1ccc2c(c1)OCCO2 (configuration not stated) |  | inconclusive [inhibitor, partial curve, poor fit]
27 | N/C(=N\OC(=O)COc1cc(Cl)c(Cl)cc1Cl)c1ccccn1 | inactive: 494% | 
28 | O=C1Nc2cc(C(=O)NCCN3CCCCCC3)ccc2S/C1=C\c1ccccc1 |  | inconclusive [inhibitor, partial curve]
29 | FC(F)(F)c1ccc(NCCc2ccccc2)nc1 | inactive: 25.8% | 
30 | Cc1ccc(C)c(CN2CCC(n3nnc4cc(F)ccc43)CC2)c1 |  | active: 8.28 µM
31 | CCOC(=O)c1c(NC(=S)N2CCOCC2)sc2c1CCN(C(=O)OCC)C2 |  | inconclusive [inhibitor, partial curve, poor fit]
32 | Cc1cccc(C)c1NC(=O)NNC(=O)c1cc(C(C)(C)C)nn1Cc1ccccc1 |  | inconclusive [inhibitor, partial curve, poor fit]
33 | CCCCn1nc2cc(C(=O)NCc3ccccc3OC)ccc2c1OCC |  | inconclusive [inhibitor, single point]
34 | O=C(c1ccccc1)N1CCCOC1c1ccccc1 (configuration not stated) |  | inconclusive [inhibitor, single point]
35 | CCc1nc2ccc(Cc3ccc4nc(CC)[nH]c4c3)cc2[nH]1 |  | inconclusive [inhibitor, single point]
36 | CCOc1nc(N=C(N)N)nc2c(C)cccc12 |  | active: 8.28 µM
37 | CCCOc1ccc(-c2nc(SCc3ccccc3)[nH]c(=O)c2C#N)cc1OC |  | inconclusive [inhibitor, partial curve]
38 | COc1ccc(C(C(=O)Nc2ccc3c(c2)OCO3)N(C)C(=O)Cc2c[nH]c3ccccc23)cc1 (configuration not stated) |  | inconclusive [inhibitor, single point]
39 | CCOc1ccc(C(=O)NC(=S)Nc2ccc(NC(=O)CC)cc2)cc1[N+](=O)[O-] | inactive: 11.9% | 
40 | Cc1c(C)c2ccc(O[C@@H]3O[C@H](CO)[C@H](O)[C@H](O)[C@H]3O)c(C)c2oc1=O | inactive: 16.8% | 
41 | Cc1cccc2c1-c1sc(C(=O)Nc3ccccc3N3CCN(C)CC3)cc1CO2 |  | inconclusive [inhibitor, partial curve]
42 | CCCCOc1ccc(OC(=O)Nc2cc(Cl)ccc2OC)cc1 |  | inconclusive [inhibitor, single point]
